Assay results taken from PubChem BioAssay AID463173 (ICCB-Longwood Screening Facility, Harvard Medical School, 2010).
Out of some 52,000 compounds screened, about 4,300 (8.3%) were called active. Rule as the data show it: active = survival mostly below about 52% (no sharp cut-off); inactive = mostly above about 56%. Some of the results follow.

Each molecule was assayed on DeltatarO mutant (assay: growth inhibition of S. aureus wild type versus tarO mutant, primary screen, teichoic acid synthesis inhibitors, RN4220, OD600 (AID 463173)). Conditions: OD600, 18 h, hits give low values, screened at 18.75 µg/mL (by protocol).
For `CCCN1CN=C(NS(=O)(=O)c2ccc(NC(C)=O)cc2)NC1`, the survival was inactive: 77%. In the case of `O=C(NCCc1ccccc1)c1ccc(Cn2c(SCc3ccccc3F)nc3cccnc32)cc1`, the survival is reported as inactive: 87%. `O=C(CSc1nc(=O)n(Cc2ccncc2)c2c1CCC2)Nc1ccc(F)cc1F` was tested, and the survival was inactive: 78%. For `CCc1ccc(NC(=O)CSc2nc(-c3cccc(OC)c3)nc3c2Cc2c(CO)cnc(C)c2O3)cc1`, the survival was inactive: 87%. For `CCCC12CN3CC(CCC)(CN(C1)C3c1ccc(OC(C)C)cc1)C2=O` (configuration not stated), the survival was active: 21%. `COc1cccc(Cn2c(C)c(CNC3CCCCC3)c(C(=O)O)c2C)c1` was tested, and the survival was inactive: 88%. `COc1cc(C(=O)N(Cc2ccc(N(C)C)cc2)CC2CCCO2)cc(OC)c1OC` (configuration not stated) was tested, and the survival was active: 47%. `Cc1c(C(=O)N(C)C)sc2c1c(=O)n(-c1ccc(Cl)c(Cl)c1)c(=O)n2CC(=O)N1CCCCC1C` (configuration not stated) was tested, and the survival was inactive: 57%. In the case of `CCCc1cc(=O)[nH]c(Nc2cc(C)cc(C)c2)n1`, the survival is reported as inactive: 108%. `COc1ccc(-c2noc(-c3ccc(N4CCN(c5ccccc5OC)CC4)c([N+](=O)[O-])c3)n2)cc1` was tested, and the survival was inactive: 51%. In the case of `CCOc1ccc(NC(=O)CSc2nnc(CNC(=O)C34CC5CC(CC(C5)C3)C4)n2CC)cc1`, the survival is reported as inactive: 92%. In the case of `COc1ccc(-n2nc3cc(C)c(NC(=O)Cc4ccc(Cl)cc4)cc3n2)cc1`, the survival is reported as inactive: 56%. In the case of `COc1ccc(OC)c(CNC(=O)c2ccc3c(c2)c(C)c(C)n3C)c1`, the survival is reported as inactive: 78%. `CCCCN(CC)C(=O)c1nn(-c2ccc(OC)cc2)c(=O)c2c1c1ccccc1n2C` was tested, and the survival was inactive: 82%. For `Cc1ccc(C)c(N2CCN(C(=O)c3cc4c(=O)oc5ccccc5c4s3)CC2)c1`, the survival was inactive: 77%. `O=C(Cn1c(=O)n(-c2ccccc2)c(=O)c2ccc(C(=O)NCc3ccc4c(c3)OCO4)cc21)Nc1ccc(Br)cc1` was tested, and the survival was inactive: 79%. `Cc1ccc(S(=O)(=O)N2CCN(C(=O)c3c(C)nn(-c4ccccc4)c3Cl)CC2)cc1` was tested, and the survival was inactive: 63%. With `CCOc1cc(CNC(=O)c2ccc3nc(C(C)C)oc3c2)cc(OCC)c1OCC` the survival was active: 47%. `CCS(=O)(=O)c1oc(-c2ccc(F)cc2)nc1S(=O)(=O)c1ccccc1` was tested, and the survival was active: -5%. `O=C(CSc1nc2ncccc2o1)Nc1cccc(C(F)(F)F)c1` was tested, and the survival was active: -1%. With `CN(CCO)Cc1ccc2c(c1)OCO2` the survival was inactive: 90%. In the case of `COc1ccc(N2CCN(S(=O)(=O)CCNC(=O)Cc3ccc(OC)c(OC)c3)CC2)cc1`, the survival is reported as inactive: 88%. In the case of `Cc1nc(SCC(=O)Nc2nsc(-c3ccc(C(C)(C)C)cc3)n2)c2c3c(sc2n1)CCCC3`, the survival is reported as inactive: 78%. In the case of `COc1ccc(N2CC(NC(=O)C3CCCCC3)CC2=O)cc1OC` (configuration not stated), the survival is reported as inactive: 78%. With `O=C(c1cnc2c(c1)COc1ccc(Cl)cc1-2)c1ccccc1O` the survival was inactive: 105%. For `O=C(CCn1nnc2ccccc21)N1CCC(O)(c2cccc(F)c2)CC1`, the survival was inactive: 81%. With `O=C(O)c1ccc(N=NSCCO)cc1` the survival was inactive: 79%. In the case of `CCOc1ccc(NC(=O)CCCOc2cc(=O)n(C)c3ccccc23)cc1`, the survival is reported as inactive: 80%. `Clc1ccccc1CSc1nnc(C2CCNCC2)o1` was tested, and the survival was inactive: 89%. `Cc1ccc2nc(-c3ccc(C)o3)c(Nc3ccc4c(c3)OCCO4)n2c1` was tested, and the survival was inactive: 72%. `COc1ccc(NC(=O)c2oc3ccccc3c2NC(=O)Cc2coc3ccc(C)cc23)cc1` was tested, and the survival was inactive: 70%. In the case of `Cc1ccccc1CSc1nc(-c2cccc(F)c2)nc2c1Cc1c(CO)cnc(C)c1O2`, the survival is reported as inactive: 75%. In the case of `CN(C)C(=O)c1ccc2c(c1)N(CC(=O)NCc1ccccc1Cl)C(=O)C1CCCCN21` (configuration not stated), the survival is reported as inactive: 74%. In the case of `COc1ccc(OC)c(CNC(=O)c2nn(C)c3c2CS(=O)(=O)c2ccccc2-3)c1`, the survival is reported as inactive: 74%. `COC(=O)c1ccc(NC(=O)CCc2c(C)nc3c(c(C)nn3C(C)(C)C)c2C)cc1` was tested, and the survival was inactive: 59%. For `CC(=O)Nc1ccc(Nc2c3c(c(C#N)c4nc5ccccc5n24)CCC3)cc1`, the survival was inactive: 91%. For `CCN(C(=O)CSc1nc(-c2ccccc2)no1)c1ccccc1`, the survival was inactive: 79%. In the case of `COc1ccc2c(c1)N(C)/C(=C1/SC(=Nc3ccc(C)cc3)N(C)C1=O)S2`, the survival is reported as inactive: 102%. With `Cc1ccc2occ(-c3cc(-c4ccc(F)cc4)nc4c3COc3ccc(F)cc3-4)c(=O)c2c1` the survival was inactive: 92%. In the case of `CCOc1cc(NS(=O)(=O)c2ccc(OC)cc2)c(OCC)cc1NC(=O)CC`, the survival is reported as inactive: 75%. `O=S(=O)(Nc1ccc(-c2nc3ccccc3o2)cc1)c1ccccc1` was tested, and the survival was active: 24%. In the case of `CCOC(=O)C1CCCN(C(=O)c2ccc3c(c2)N(Cc2cccc(Cl)c2)C(=O)c2ccccc2S3(=O)=O)C1` (configuration not stated), the survival is reported as inactive: 64%. In the case of `COc1ccc(C)cc1NC(=O)CN1C(=O)COc2ccc(S(=O)(=O)N3CCCCCC3)cc21`, the survival is reported as inactive: 82%. `CCCN(C(=O)Cn1c(=O)oc2cc(Cl)ccc21)c1ccc(C(C)C)cc1` was tested, and the survival was active: 15%. In the case of `CCC1CCc2c(sc(NC(=O)C3c4ccccc4Oc4ccccc43)c2C#N)C1` (configuration not stated), the survival is reported as inactive: 70%. `CCc1ccc(S(=O)(=O)c2cn(C)c3cc(OC)c(OC)cc3c2=O)cc1` was tested, and the survival was inactive: 121%. With `COc1ccc(-n2ncc3c(=O)n(CC(=O)N4CC(C)CC(C)C4)cnc32)cc1` (configuration not stated) the survival was inactive: 66%. With `CCOC(=O)c1nc(Nc2ccccc2C)c2ccccc2n1` the survival was inactive: 49%. In the case of `CCOc1cccc(C2c3[nH]c4ccccc4c3CCN2C(=O)CCc2ccccc2)c1` (configuration not stated), the survival is reported as inactive: 67%. `CCCC1(C(=O)OCC)NC(c2ccccc2F)C2C(=O)N(c3ccccc3)C(=O)C21` (configuration not stated) was tested, and the survival was inactive: 88%. `CCN(CC)c1ccc(C(=O)N2CCC(c3ccncc3)CC2)cc1` was tested, and the survival was inactive: 88%. For `O=C(Nc1nc2ccc(Cl)cc2s1)c1ccc(S(=O)(=O)N2CCCC2)cc1`, the survival was inactive: 117%. With `Cc1cc(OCCn2cc(C(=O)c3ccco3)c3ccccc32)ccc1Cl` the survival was inactive: 53%. `COc1ccccc1NC(=O)CSc1oc(-c2ccco2)nc1S(=O)(=O)c1ccc(Br)cc1` was tested, and the survival was inactive: 74%. In the case of `COc1ccc(-c2nnc(SCC(=O)Oc3cccc(C)c3C)o2)cc1`, the survival is reported as inactive: 65%. With `O=C(Nc1ccccc1)c1ccncc1` the survival was inactive: 97%. `CCOc1ccccc1CNC(=O)CSc1n[nH]c(-c2ccccc2Cl)n1` was tested, and the survival was inactive: 82%.
